Experimental data from PubChem BioAssay AID743255 (National Center for Advancing Translational Sciences (NCATS), 2014).
The whole screen tested about 390,000 compounds, of which about 910 (0.23%) were called active. About 5% were inconclusive and are not listed. Calls follow the shape of the dose curve; as a rule, active = well fitted inhibition curve with a large enough effect; inconclusive = small, poorly fitted or top-dose-only effect; inactive = no such curve, though single readings can be large or run the other way. Only a part is listed here, and it is no random draw.

Target: Ubiquitin carboxyl-terminal hydrolase 1 (Homo sapiens) (UniProt O94782)
Assay: Inhibitors of USP1/UAF1: Primary Screen; also: nearly all actives have a fitted effect of over 60% in size
Conditions: recombinant USP1/UAF1, Ub-Rhodamine cleavage fluorescence; activity change, negative = inhibition: at 57.1 µM (top of the series)
Description: Deubiquitinating enzymes (DUBs) are a class of enzymes that can cleave isopeptide bond formed between the C-terminal carboxylate of ubiquitin and a lysine side-chain amino group on the target protein. Among them, ubiquitin specific proteases (USPs) constitute the largest DUB family. Human USPs are emerging as promising targets for pharmacological intervention because of their connection to a number of human diseases, including prostate, colon and breast cancer (1, 2), pediatric acute lymphoblastic leukemia (3), and familial cylindromatosis (4). The advantage of inhibiting USPs lies in the potential specificity of therapeutic intervention that can lead to better efficacy and reduce nonspecific side effects. In a collaboration between the University of Delaware and the NIH Chemical Genomics Center, a high-throughput screen assay was developed to screen for USP1/UAF1 inhibitors. This miniaturized assay has a fluorescent read-out and is used to screen the NIH Molecular Libraries Small Molecule Repository (MLSMR) in order to identify a small molecule that inhibits USP1. NIH Chemical Genomics Center [NCGC] NIH Molecular Libraries Probe Centers Network [MLPCN] MLPCN Grant: DA030552 Assay Submitter (PI): Zhihao Zhuang, University of Delaware 1. Priolo, C., et al. (2006) The isopeptidase USP2a protects human prostate cancer from apoptosis. Cancer Res 66, 8625-8632 2. Popov, N., et al. (2007) The ubiquitin-specific protease USP28 is required for MYC stability. Nat Cell Biol 9, 765-774 3. De Pitta, C., et al. (2005) A leukemia-enriched cDNA microarray platform identifies new transcripts with relevance to the biology of pediatric acute lymphoblastic leukemia. Haematologica 90, 890-898 4. Kovalenko, A., et al. (2003) The tumour suppressor CYLD negatively regulates NF-kappaB signalling by deubiquitination. Nature 424, 801-805
3 microliters of reagents (buffer in columns 3 and 4 as negative control and 1nM USP1/UAF1 complex in columns 1, 2, and 5-48) are dispensed into Greiner black solid bottom 1536-well assay plates. Compounds are then transferred via Kalypsys pin tool equipped with 1536-pin array (10nl slotted pins, V&P Scientific, San Diego, CA). Following an incubation step of 15 min at room temperature, 1ul of Ub-Rho substrate (150nM final concentration) is added to initiate the reaction. The plates are immediately centrifuged at 1000 rpm for 15 seconds, and subsequently transferred to a ViewLux high-throughput CCD imager (PerkinElmer) wherein kinetic measurements of fluorescence are acquired using 480 nm excitation/540 nm emission filter set (6 reads every 60 seconds, see Table 1). All reagents are diluted in an assay buffer consisting of 50mM HEPES (pH 7.8), 0.5mM EDTA, 0.1 mg/ml BSA, 1mM TCEP, and 0.01% Tween-20.
% is scaled to controls: 0 for no effect and ±100 for the full control effect; potency is read from the fitted curve at half-maximal effect.

Chain of UniProt O94782 (O94782 whole entry, looked up): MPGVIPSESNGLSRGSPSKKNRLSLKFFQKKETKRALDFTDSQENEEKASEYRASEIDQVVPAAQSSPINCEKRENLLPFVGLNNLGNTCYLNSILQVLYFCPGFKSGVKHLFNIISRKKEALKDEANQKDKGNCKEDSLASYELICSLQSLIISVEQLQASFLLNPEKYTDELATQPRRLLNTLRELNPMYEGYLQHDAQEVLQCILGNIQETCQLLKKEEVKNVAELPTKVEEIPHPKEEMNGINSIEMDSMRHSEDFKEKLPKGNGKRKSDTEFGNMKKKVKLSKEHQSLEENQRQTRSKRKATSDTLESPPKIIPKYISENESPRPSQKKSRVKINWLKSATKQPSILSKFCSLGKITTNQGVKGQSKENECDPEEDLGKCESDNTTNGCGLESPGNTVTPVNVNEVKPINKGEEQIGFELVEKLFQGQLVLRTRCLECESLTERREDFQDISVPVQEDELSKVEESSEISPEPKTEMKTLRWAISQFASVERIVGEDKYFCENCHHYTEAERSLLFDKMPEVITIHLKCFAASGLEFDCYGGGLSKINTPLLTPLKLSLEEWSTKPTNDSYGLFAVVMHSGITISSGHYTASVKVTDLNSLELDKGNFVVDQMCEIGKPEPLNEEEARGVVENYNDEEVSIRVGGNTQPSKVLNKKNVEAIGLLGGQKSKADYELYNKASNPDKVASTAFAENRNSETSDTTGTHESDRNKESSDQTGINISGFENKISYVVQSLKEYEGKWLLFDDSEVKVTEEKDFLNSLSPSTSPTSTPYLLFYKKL

Activity change, negative = inhibition, inactive:
COc1ccc([C@H]2C[C@@H](n3cc(COC(=O)c4ccccc4)nn3)[C@H](O)CN2C(=O)c2cccs2)cc1 -16.1%, COCCn1c(=N)c(C(=O)NCc2ccco2)cc2c(=O)n3cc(C)ccc3nc21 -15.8%, CCc1ccc(/C=C2/SC(=S)N(CCCC(=O)Nc3ccccc3C(=O)O)C2=O)cc1 -19.1%, CCc1ccc(CN(C(=O)c2cc(=O)c3ccc(C)cc3o2)C2CCS(=O)(=O)C2)cc1 (stereo not drawn) 47.4%, COC(=O)C1=C(C(=O)OC)[C@]2([C@@H]3CCCCN[C@@H](Cc4ccccc4)C(=O)N3Cc3ccccc3)C=C[C@H]1O2 -27.9%, C[C@@H]1CN([C@@H](C)CO)C(=O)CCCn2nncc2CO[C@H]1CN(C)S(=O)(=O)c1ccc2c(c1)OCCCO2 3.22%, CC(=O)c1sc2nc(-c3cccs3)cc(C(F)(F)F)c2c1N 271%, CN(C)c1ccc(CNS(=O)(=O)c2csc(C(N)=O)c2)cc1 -8.27%, NC1=NC[C@@H](Cc2ccc(O)cc2)N1CCC12CC3CC(CC(C3)C1)C2 -15.9%, CCOC(=O)c1cc2c(c(CCO)n1)[C@@H](CCO)N(S(=O)(=O)C(C)(C)C)C2 -16.5%, C=CC[C@@H](CC(=O)OC(C)(C)C)C(=O)OC[C@@H]1CCCN1C(=O)[C@@H](CC=C)CC(=O)N[C@H](CO)Cc1ccccc1 -23.5%, O=C(C[C@@H]1C/C=C\C[C@H](Cc2ccc(F)cc2)C(=O)OC[C@@H](Cc2c[nH]c3ccccc23)NC1=O)NCCO -22%, CC1(C)O[C@H]2CC(=O)OCC23[C@H]2CC[C@@]4(C)[C@H](c5ccoc5)OC(=O)[C@H]5O[C@]54[C@]2(C)C(=O)C[C@@H]13 (stereo partly drawn) -12%, O=C(Nc1ccc(F)c(F)c1)c1ccc(F)c(S(=O)(=O)N2CCC3(CC2)OCCO3)c1 -28%, Cc1ccc(-n2nc(CO)c(C(=O)NC(C)c3ccccc3)n2)cc1C (stereo not drawn) 21.4%, C=CC[C@H](CC(=O)N(CCO)Cc1ccccc1)C(=O)N[C@@H](COC(=O)[C@H](CC=C)CC(=O)OC(C)(C)C)Cc1c[nH]c2ccccc12 -16.2%, C=CC[C@@H](CC(=O)NCCO)C(=O)N[C@@H](C)COC(=O)[C@@H](CC=C)Cc1ccc(F)cc1 -29.4%, Cc1ccc(Cn2ccnc2SCC(=O)NC2CCCC2)cc1 0.453%, CCOc1ccc(CNC(=O)C2CCN(c3nnc(-n4c(C)ccc4C)s3)CC2)cc1 -22.4%, CCOC(=O)N1CCc2c(sc3c2c(=O)n(Cc2ccccc2)c(=O)n3Cc2cccc(C)c2)C1 -18.9%, CCc1ccc(CNC(=O)Cn2nc(-c3ccc(C)cc3)ccc2=O)cc1 27.4%, CC(C)OC(=O)N(C)C[C@H]1OCc2cnnn2CCCC(=O)N([C@H](C)CO)C[C@H]1C 9.14%, CCOC(=O)N(C)C[C@@H]1OCc2cnnn2CCCC(=O)N([C@H](C)CO)C[C@H]1C -14.4%, CCCCN(CCCC)c1nc2ccccc2nc1C(C#N)C(=O)NCCCOC (stereo not drawn) 103%, COc1ccc(NC(=O)CN2C(=O)COc3ccc(S(=O)(=O)N4CCCCC4)cc32)cc1OC -17.5%, COc1ccc(OC)c(S(=O)(=O)NCCS(=O)(=O)N2CCN(c3ccccc3)CC2)c1 -5.01%, Nc1ccn([C@H]2C[C@H](O)[C@@H](CO)O2)c(=O)n1 -24.1%, CCCCC(CC)CNC(=O)CCCCn1c(=O)[nH]c2ccsc2c1=O (stereo not drawn) -6.07%, CCN(CC)S(=O)(=O)c1ccc2c(c1)c(=O)c(C(=O)NCCc1ccccc1)cn2C -20.2%, Cc1c(Cl)cccc1NC(=S)/C(=C(\[O-])c1ccc(Cl)s1)[n+]1ccccc1 -4.46%, CCc1nc2ccc(C(=O)N3CCN(c4cc(C)ccc4C)CC3)cc2nc1CC -2.16%, COc1ccc(-n2nc3c(N4CCC(C(=O)NC5CCCCC5)CC4)nnc(C)c3c2C)cc1 -24.6%, Nc1nc(SCC(=O)N2N=C3/C(=C/c4ccco4)CCCC3C2c2ccco2)n[nH]1 (stereo not drawn) -24.5%, C=CC[C@H](CC(=O)N(CCO)Cc1ccccc1)C(=O)N[C@@H](COC(=O)[C@@H](CC=C)CC(=O)OC(C)(C)C)Cc1c[nH]c2ccccc12 -26.2%, C[C@@H]1CN([C@H](C)CO)C(=O)CCCn2cc(nn2)CO[C@H]1CN(C)S(=O)(=O)c1ccc2c(c1)OCCCO2 -10.2%, COC(C/C=C/C(=O)[C@H](C)OCc1ccccc1)OC -20.8%, COC(C[C@@H]1O[C@@H]1[C@@H](O)[C@@H](C)OCc1ccccc1)OC -22.1%, COc1cc(/C=N/NC(=O)c2ccncc2)ccc1O -29.3%, CC(C)(C)OC(=O)C[C@H]1C/C=C\C[C@H](CC(=O)N[C@@H](CO)Cc2ccccc2)C(=O)N[C@H](C(C)(C)C)COC1=O -23.4%, Cc1cc(C)n2c(Nc3ccc4c(c3)OCCO4)c(-c3ccccc3)nc2n1 -18.8%, Oc1ccc(C[C@@H]2CNCCN2CCc2cccc(F)c2)cc1 -23.8%, CCOC(=O)C1CCN(c2cc3c(cc2NC(=O)c2ccccc2Cl)n(C)c(=O)n3C)CC1 -23.6%, O=C1N[C@@H](Cc2ccccc2)C(=O)N2[C@H]1C[C@]1(Br)c3ccccc3N(S(=O)(=O)c3ccc(F)cc3)[C@H]21 -18.3%, C=CC[C@@H](Cc1ccc(F)cc1)C(=O)OC[C@H]1CCCN1C(=O)[C@H](CC=C)CC(=O)N[C@H](CO)Cc1ccccc1 -15.9%, C=CCC[C@H](Cc1ccc(F)cc1)C(=O)OC[C@@H](C)NC(=O)[C@H](CC=C)CC(=O)NCCO 19.7%, C[C@H](CO)N1C[C@H](C)[C@@H](CN(C)C(=O)Nc2ccccc2)Oc2ccc(NC(=O)c3ccncc3)cc2C1=O -10.2%, C=CC[C@@H](CC(=O)OC(C)(C)C)C(=O)OC[C@@H]1CCCN1C(=O)[C@@H](CC=C)CC(=O)N[C@@H](CO)Cc1ccccc1 -22.6%, CCCCN(C)C(=O)C(Cc1ccccc1)NS(=O)(=O)c1ccc2c(c1)c(=O)n(C)c(=O)n2C (stereo not drawn) -6.09%, CCOC(=O)[C@@H]1[C@H]2COc3ccc(Br)cc3[C@H]2N2C(=O)N(c3ccc(Br)cc3)C(=O)[C@]12C 4.06%, C[C@@H]1CN([C@H](C)CO)S(=O)(=O)c2ccc(Br)cc2O[C@@H]1CN(C)C(=O)Nc1ccc(C(F)(F)F)cc1 -20.1%, CCN(CC)CCNC(=O)c1cn(CC)c2ccc(S(=O)(=O)N3CCc4ccccc4C3)cc2c1=O -7.76%, Cc1ccc(-c2nn(CCC(N)=O)c(=O)c3ccccc23)cc1 -21.9%, C[C@H](CO)N1C[C@H](C)[C@@H](CN(C)C(=O)c2ccc3ccn(C)c3c2)OCc2cn(nn2)CCCC1=O -26.4%, COc1ccc(N=C(N(C)C)P(=O)(N(C)C)N(C)C)cc1 -5.61%, CCOCCCNC(=O)C(c1ccc(OC)cc1)N(Cc1cccs1)C(=O)CNC(C)=O (stereo not drawn) -11.6%, C[C@H](CO)N1C[C@H](C)[C@H](CN(C)S(=O)(=O)c2ccccc2F)OCc2cnnn2CCCC1=O -11.6%, C[C@H]1CCC[C@]2(O[C@H](CCO)C[C@H](O)[C@H]2O)O1 -11.7%, COc1cccc(S(=O)(=O)N(C)C[C@@H]2Oc3cc(Br)ccc3S(=O)(=O)N([C@@H](C)CO)C[C@@H]2C)c1 -15.2%, C[C@H]1CN([C@@H](C)CO)C(=O)CCCn2nncc2CO[C@@H]1CN(C)C(=O)c1ccc2ccn(C)c2c1 -15%, CCOc1cc(C=C2C(=O)c3ccccc3C2=O)ccc1OCC(=O)Nc1ccc(C)cc1 230%, COc1ccc(OCC(=O)N(Cc2sccc2C)C2CCS(=O)(=O)C2)cc1 (stereo not drawn) -21.3%, CCOC(=O)[C@@H]1[C@H]2COc3cc(OC)ccc3[C@@H]2N2C(=O)N(c3ccc(Br)cc3)C(=O)[C@@]12C -23.5%, C#CCNC(=O)C1=C[C@@H](c2ccc3c(c2)OCO3)C[C@@H](OCCCCO)O1 -26.8%

Potency, active:
O=C1C=C(NCCc2cc(Br)c(O)c(Br)c2)C(=O)c2ncccc21 3.55 µM, CCc1cc[n+](C2=C([O-])c3ccccc3C(=O)/C2=N\S(=O)(=O)c2cccs2)cc1 17.8 µM, CC(=O)Nc1cccc(C(=O)/C=C/c2ccc(N(C)C)cc2)c1 5.62 µM, C[n+]1c(-c2ccccc2)cc2c(=Cc3ccccc3)c3ccccc3n21 3.98 µM, COCCCNC(=O)c1ccc2c3c(onc13)-c1ccccc1C2=O 20 µM, COCCN1C=C2C(=O)C(C)(OC(=O)CCC(=O)OC)C(=O)C(Br)=C2C=C1c1ccc(OC)cc1 (stereo not drawn) 25.1 µM, Cc1[nH]cnc1CN1CCc2c(c3ccccc3n2C)C1=O 35.5 µM, CCN(CC)c1ccc(N=C2C(=O)Nc3ccccc32)cc1 31.6 µM, CCOc1ccc(C2C(C#N)=C(N)SC(N)=C2C#N)cc1OCC 31.6 µM, COC(=O)CCC(=O)OC1(C)C(=O)C2=CN(C3CC3)C(c3ccc(OC)cc3)=CC2=C(Br)C1=O (stereo not drawn) 22.4 µM, O=c1[nH]c(Nc2ccc(F)cc2)cc2ccccc12 12.6 µM, COc1ccc(/C=C2\C(=O)NC(=O)c3ccccc32)cc1OC 1.78 µM, Nc1c(C(=O)NCC2CCCO2)sc2nc3c(c(-c4ccco4)c12)CC/C3=C\c1ccco1 (stereo not drawn) 28.2 µM, COc1cc(NCCCCCCN)c2ncccc2c1OC 8.91 µM, CCOc1cc(CNc2ccc(O)cc2)cc(Cl)c1OCc1ccccc1 28.2 µM, COc1cc(CCNC2=CC(=O)c3ncccc3C2=O)ccc1O 17.8 µM, O=c1c(/C=N/Nc2ccccc2)c(Sc2nnnn2-c2ccccc2)nc2ccccn12 3.16 µM, C=CCN1C=C2C(=O)C(C)(OC(=O)CCC(=O)OC)C(=O)C(Br)=C2C=C1c1ccc(OC)cc1 (stereo not drawn) 31.6 µM, Cc1ccc2[nH]cc(/C=C/c3cc[n+](C)cc3)c2c1 28.2 µM

Potency, inactive:
CN(C)CCC(c1ccc(Br)cc1)c1ccccn1 (stereo not drawn)
